# ± gives the standard deviation of the averaged measurements. In all, about 33,000 sequences were measured (“E-score (dimensionless, -0.5 to 0.5)”: median about -0.049, highest 2% from about 0.37 on). This is one part of the list.
# Tested on: T1, PmTbr T-box DNA-binding domain (GST fusion)
# T1 sequence: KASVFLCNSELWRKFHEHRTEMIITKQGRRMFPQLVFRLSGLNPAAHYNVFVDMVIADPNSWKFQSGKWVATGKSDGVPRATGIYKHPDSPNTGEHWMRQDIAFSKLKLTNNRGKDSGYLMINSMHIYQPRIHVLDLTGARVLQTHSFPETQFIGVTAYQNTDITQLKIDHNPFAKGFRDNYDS
# Experiment: PBM E-score of 8-mer (E-score (dimensionless, -0.5 to 0.5)); Tbr is Tbrain of the sea star Patiria miniata (Pm) or the sea urchin Strongylocentrotus purpuratus (Sp); higher = stronger binding preference; most listed sequences are background and not binding sites
# Conditions: the construct has about 5 more residues each side
# Summary of the method: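 GST-fused Tbr T-box DNA-binding domains (the whole T-box plus about five flanking residues) were expressed in BL21 E. coli at 20 °C and purified by glutathione affinity chromatography. Universal Agilent oligonucleotide arrays were made double-stranded by primer extension, incubated with 200 nM protein in PBS (pH 7.5), then scanned and quantified. Every ungapped 8-mer was scored from probe intensities. The Universal PBM Analysis Suite gave each word an enrichment E-score, averaged over duplicate arrays.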
row,Sequence,PBM E-score of 8-mer
1,TGATGTAA,-0.0938 ± 0.03
2,GAGTAAAC,-0.0381 ± 0.018
3,GTTAGAAC,0.0847 ± 0.031
4,AGCTCGGG,-0.233 ± 0.01
5,ATTACGTA,-0.169 ± 0.0051
6,GCGATGTA,0.0636 ± 0.0069
7,AATCAGTA,-0.0919 ± 0.032
8,AGTACCAG,-0.145 ± 0.08
9,AGTCTGTG,-0.0993 ± 0.051
10,GGACGTGA,0.259 ± 0.0037
11,ACCTCTGC,0.114 ± 0.051
12,AATGCTTC,-0.0719 ± 0.18
13,CAAACCTA,-0.158 ± 0.0051
14,AGCATTCC,0.047 ± 0.023
15,CTTTTTTA,-0.0882 ± 0.16
16,CAACATAG,-0.169 ± 0.035
17,TTACCGAA,-0.2 ± 0.041
18,ACCTACTA,0.128 ± 0.021
19,ACTGTGAG,0.22 ± 0.017
20,CTATCACA,0.305 ± 0.009
21,GCTTACCA,-0.0556 ± 0.093
22,TGATATCA,0.259 ± 0.011
23,ATTATGCG,-0.162 ± 0.031
24,ATAGGATC,-0.178 ± 0.024
25,GCGAACAA,0.133 ± 0.004

row,Sequence,PBM E-score of 8-mer
1,CCAGGGGG,-0.0137 ± 0.0017
2,CCGGGGTA,-0.0768 ± 0.015
3,AATGTGGG,0.214 ± 0.036
4,ACTGGCCC,-0.164 ± 0.004
5,ACCGCCCA,-0.066 ± 0.0059
6,AAGAGACA,-0.119 ± 0.093
7,AACAGGGC,0.0566 ± 0.012
8,GCGTCTCA,0.00931 ± 0.019
9,AACCAAAG,-0.298 ± 0.06
10,CCACGGCC,0.12 ± 0.021
11,CTCAAATC,0.059 ± 0.054
12,AATCCGCG,0.0877 ± 0.013
13,CGATCGAA,-0.13 ± 0.0037
14,ATGGCGCA,-0.0543 ± 0.098
15,ACTATTTA,0.116 ± 0.085
16,AGCCGGGG,-0.217 ± 0.028
17,CCAGTACC,-0.0862 ± 0.059
18,GAGTAGTA,-0.156 ± 0.053
19,CCTACCCG,0.0823 ± 0.023
20,CACATAGC,0.256 ± 0.037
21,AGCTATGC,-0.214 ± 0.044
22,CAATGGCA,0.157 ± 0.024
23,CTACTTAC,0.0878 ± 0.044
24,CATCTGAC,0.0163 ± 0.016
25,AACTATCC,-0.231 ± 0.032

row,Sequence,PBM E-score of 8-mer
1,AATTCTGT,0.0336 ± 0.035
2,GCCGAACC,-0.348 ± 0.025
3,AACAATTA,0.0945 ± 0.0071
4,GGTGGGAC,0.189 ± 0.011
5,ATTACACC,0.349 ± 0.0023
6,CTACGCAC,0.0515 ± 0.034
7,CGTTACAC,0.181 ± 0.0063
8,GCGTTTCA,-0.121 ± 0.034
9,ACTGAAAG,-0.0925 ± 0.034
10,GGTGTCCA,0.294 ± 0.021
11,CCCTTGGA,-0.13 ± 0.033
12,CCAGCGTA,-0.191 ± 0.039
13,CAAAGTCA,-0.158 ± 0.012
14,AGATGCAC,-0.217 ± 0.11
15,CTATTCGA,-0.124 ± 0.004
16,CTTGCCGC,-0.0178 ± 0.037
17,GAAGCTTC,-0.0406 ± 0.17
18,GGTTAGCA,0.314 ± 0.027
19,GAATTCAA,-0.132 ± 0.067
20,GGCATCCA,-0.0589 ± 0.0093
21,CCGAGGTA,-0.286 ± 0.05
22,AAAAATGC,-0.047 ± 0.066
23,AAGCATTG,-0.0972 ± 0.077
24,GAACGGAC,0.135 ± 0.012
25,GTGGAGCA,-0.0549 ± 0.039

row,Sequence,PBM E-score of 8-mer
1,AGGAGATC,-0.171 ± 0.1
2,AGCCTTAA,-0.195 ± 0.07
3,AAGGGTAC,-0.04524 ± 5.7e-05
4,AACAAGTG,0.317 ± 0.036
5,AATCTTCA,-0.068 ± 0.038
6,AGGAAGCC,-0.165 ± 0.055
7,CGACCCAC,-0.142 ± 0.055
8,CAGCACTA,-0.175 ± 0.026
9,GCTCCGAA,-0.0515 ± 0.015
10,AGTATTCC,-0.0919 ± 0.053
11,ACACTGAT,0.165 ± 0.01
12,GTGTTTGA,0.235 ± 0.04
13,AAGTATTG,-0.0327 ± 0.066
14,CCCAGTTC,-0.152 ± 0.02
15,GGAGCCGA,0.051 ± 0.04
16,TATTTGCA,0.0407 ± 0.063
17,TGTCCACA,0.0836 ± 0.059
18,CCTTCGCC,-0.0247 ± 0.041
19,ATGCTCAC,0.261 ± 0.0054
20,ATTCGCGG,0.244 ± 0.039
21,ACATCTCC,0.16 ± 0.025
22,AAGTCTAA,-0.0669 ± 0.06
23,CGGGTCGC,0.119 ± 0.092
24,TAGGTAAA,-0.141 ± 0.018
25,TGTAGAAA,-0.0519 ± 0.1

row,Sequence,PBM E-score of 8-mer
1,TCTCATAA,-0.0872 ± 0.047
2,CAATTTAG,-0.0909 ± 0.094
3,AGCTTCCC,-0.255 ± 0.0013
4,AACCACTT,-0.052 ± 0.073
5,TGCTACAA,-0.0676 ± 0.076
6,AACCTGGA,-0.141 ± 0.018
7,CCCCTCAG,-0.191 ± 0.024
8,CATACAAC,0.0309 ± 0.045
9,CCGGATTC,0.0691 ± 0.16
10,CTCCTACA,-0.0881 ± 0.027
11,CTTAATGC,-0.0943 ± 0.11
12,AAACGGTG,0.0825 ± 0.011
13,AAACAATT,-0.144 ± 0.029
14,TACGCCCA,-0.0572 ± 0.091
15,CGGTATAG,-0.114 ± 0.075
16,CATCCTTC,-0.129 ± 0.076
17,AGGGGAGC,-0.245 ± 0.032
18,CACCGGAG,0.00722 ± 0.051
19,ACAAACCC,-0.194 ± 0.023
20,AACAATAT,0.00943 ± 0.055
21,GGACGGCC,-0.189 ± 0.036
22,CTAATTAA,-0.204 ± 0.065
23,CAGCTCGA,0.215 ± 0.019
24,AGTCGCCG,-0.185 ± 0.035
25,AAGTTGTC,0.306 ± 0.0088

row,Sequence,PBM E-score of 8-mer
1,GAAATCAC,0.216 ± 0.01
2,AAAATTCT,-0.1 ± 0.051
3,CGGGGATC,-0.101 ± 0.043
4,CTGTTCCC,-0.105 ± 0.1
5,AGTACACG,0.0709 ± 0.011
6,GACGCGTA,0.0611 ± 0.022
7,AGAAACGG,-0.165 ± 0.043
8,GCTGATTA,-0.134 ± 0.039
9,CATACTAC,-0.138 ± 0.0096
10,GGTAACAA,0.198 ± 0.056
11,TACCTGCA,-0.174 ± 0.0055
12,ACCCCGCT,0.0858 ± 0.021
13,CACTCGGA,0.221 ± 0.015
14,GAGAAAGC,0.124 ± 0.06
15,CCAGTTGA,-0.033 ± 0.037
16,GATAGATC,-0.149 ± 0.037
17,ACTCCTGA,-0.0453 ± 0.03
18,AACCACGT,-0.316 ± 0.0044
19,AATCATAA,0.0409 ± 0.00098
20,ATGTGGTC,-0.0251 ± 0.046
21,TAAGTGCA,-0.0219 ± 0.073
22,AGACACTA,0.122 ± 0.044
23,ACCCAAAT,-0.0101 ± 0.078
24,GATAGGGA,-0.0469 ± 0.0089
25,CCGCTACC,0.153 ± 0.0095

row,Sequence,PBM E-score of 8-mer
1,ATTCCAAG,-0.162 ± 0.051
2,GGATGCTA,-0.0456 ± 0.0095
3,ATGTCCCA,-0.204 ± 0.034
4,GGAGCGAC,0.0741 ± 0.015
5,CGTTGGGC,-0.272 ± 0.012
6,GAACTCTA,-0.125 ± 0.0029
7,AGGCTGAT,-0.0665 ± 0.0036
8,GCTCCCCC,-0.26 ± 0.0098
9,CCAAAAAA,-0.164 ± 0.083
10,ACCACATA,0.1315 ± 0.00076
11,CATACGTA,-0.0885 ± 0.12
12,GTGATCTA,-0.158 ± 0.015
13,ACGCATCG,0.118 ± 0.017
14,GAACGTAC,-0.124 ± 0.0099
15,ATAACTCA,-0.141 ± 0.0091
16,CTCTTTAA,-0.27 ± 0.1
17,TCAATTAA,-0.153 ± 0.077
18,ACTCTTGA,-0.0845 ± 0.039
19,GGGCATAA,-0.086 ± 0.035
20,AGGGTAAG,-0.39 ± 0.028
21,TAAACGCA,-0.11 ± 0.042
22,AGATGAAT,-0.13 ± 0.058
